# Laboratory results reported in PubChem BioAssay AID445 (National Center for Advancing Translational Sciences (NCATS), 2006).
# Screen size: about 110,000 compounds; about 40 (0.04%) were called active. Inconclusive results, whose numbers are uncertain, are shown with a selection of clear calls. Calls come from the whole dose curve; as a rule, active = well fitted curve in the direction sought with a large enough effect in the signal ratio (not every such curve was filed as active); inconclusive = small, poorly fitted or top-dose-only effect, or a change in a side signal; inactive = flat fitted curve, though single readings scatter; the % refers to the signal ratio. Potencies beside an inconclusive call are fits to weak or partial responses and may not hold up.
# Assay: IkB Signaling;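 for IkBa stabilization activation: 0% = basal untreated cells and 100% = reference inhibitor full response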
# Details: ABC-DLBCL IkBa-CBG/CBR dual luciferase ratio (green luciferase fused to IkBa over red control in OCI-Ly3 lymphoma cells), 4 h, scaled: untreated 0%
# Summary of the method: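 Luminescence ratio of IκBα-fused green versus native red beetle luciferase in OCI-Ly3 cells, 4 h post-doxycycline with compound; red signal alone, scaled from basal (0%) to zero light (-100%), flagged nonspecific or cytotoxic effects.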
# [1] = IkBa stabilization activation: at 57.1 µM (top of the series), proteasome inhibitor 100% unless noted
# Potency is the fitted concentration of half-maximal effect.
smiles,measurement,setting,value
CCOC(=O)[C@@H](O)Cc1cnc2ccccc2n1,IkBa stabilization activation,[1],"inactive: 2% [at 11.4 µM, scaled: untreated 0%, proteasome inhibitor 100%]"
O=C1c2ccccc2[C@@H]([C@@H]2c3ccccc3C(=O)c3cc(Br)ccc32)c2ccc(Br)cc21,IkBa stabilization activation,[1],"inactive: 0.702% [at 11.4 µM, scaled: untreated 0%, proteasome inhibitor 100%]"
CS(=O)(=O)c1nc(-c2ccco2)cc(C(F)(F)F)n1,Potency,[1],"inconclusive: 3.98 µM [rising, partial curve]"
CCOc1ccc(CCNC(=O)c2ccc3[nH]c(C)c(C)c3c2)cc1,IkBa stabilization activation,[1],inconclusive: 5.17% [signal inhibitor]
Cc1ccc2scc(N3CCN(c4ccccc4)CC3)c(=O)c2c1,IkBa stabilization activation,[1],inconclusive: -2.33% [signal inhibitor]
O=C(CSCc1nc2cccnc2n1C1CCCCC1)NCc1cccc(Br)c1,IkBa stabilization activation,[1],inactive
CCCN1C(=O)C(O)(C/C(C)=N/O)c2ccccc21 (stereo not given),IkBa stabilization activation,[1],inconclusive: 1.9% [signal activator]
O=C(C1COc2ccccc2O1)N(Cc1cccnc1)c1nc2ccc(F)cc2s1 (stereo not given),IkBa stabilization activation,[1],inconclusive: 1.49% [signal inhibitor]
N#CC1=C(SCC(=O)Nc2cccc3cccnc23)NC(=O)C(C#N)C12CCCCC2 (stereo not given),IkBa stabilization activation,[1],inconclusive: 5.95% [signal inhibitor]
Cc1ccc(-c2nnc(N3CCN(C(=O)c4ccco4)CC3)c3ccccc23)cc1,IkBa stabilization activation,[1],inconclusive: -7.49% [signal inhibitor]
CC(C)C(=O)NCCn1ccc2ccccc21,IkBa stabilization activation,[1],inactive
CCCCC(=O)NC1(C(F)(F)F)C(=O)Nc2c1c(=O)[nH]c(=O)n2-c1ccc(F)cc1 (stereo not given),IkBa stabilization activation,[1],inconclusive: -1.05% [signal inhibitor]
CCC1CCCCN1C(=O)Cn1c(=O)n(-c2ccccc2C(F)(F)F)c(=O)c2c(C)c(C(=O)N(C)C)sc21 (stereo not given),IkBa stabilization activation,[1],inconclusive: -0.656% [signal inhibitor]
CCOc1ccc(NC(=O)C(CC)n2nc(-c3ccc(C)c(C)c3)ccc2=O)cc1 (stereo not given),IkBa stabilization activation,[1],inconclusive: 1.05% [signal inhibitor]
Cc1ccc(-c2cc(C(=O)NCC3CCCO3)no2)cc1 (stereo not given),Potency,[1],"inconclusive: 15.8 µM [signal inhibitor, partial curve]"
COc1ccccc1N1CCN(C(c2ccccc2)c2nnc(-c3ccccc3Cl)o2)CC1 (stereo not given),IkBa stabilization activation,[1],inconclusive: 1.85% [signal inhibitor]
Cn1cccc1Cc1nnc(SCC(=O)N2CCCC2)n1CCc1ccccc1,IkBa stabilization activation,[1],inactive
Cc1ccc(NC(=O)Cn2c(=O)n(Cc3nc(-c4ccccc4)no3)c(=O)c3cc4c(cc32)OCO4)cc1C,IkBa stabilization activation,[1],inconclusive: 0.103% [signal inhibitor]
Cc1cc(C)cc(OCC(=O)Nc2ccccc2C(=O)NCc2ccco2)c1,IkBa stabilization activation,[1],inconclusive: 13% [signal inhibitor]
COc1ccc(-c2cc(C(F)(F)F)nc(S(=O)(=O)CCC(=O)N3CCOCC3)n2)cc1,IkBa stabilization activation,[1],inactive
Cc1cc(N2CCN(C(=O)c3ccco3)CC2)n2ncc(-c3ccccc3)c2n1,IkBa stabilization activation,[1],inconclusive: -3.94% [signal inhibitor]
O=C1CC(c2ccccc2)Cc2[nH]c(=O)c(-c3nc(-c4ccc(F)cc4)cs3)cc21 (stereo not given),Potency,[1],"inconclusive: 3.98 µM [rising, full curve, poor fit]"
O=C(CN1C(=O)COc2ccc(S(=O)(=O)N3CCCC3)cc21)N1CCN(c2ccccc2F)CC1,IkBa stabilization activation,[1],inconclusive: 1.18% [signal inhibitor]
O=C1CN(C(=O)C2CCCCC2)C(c2ccccc2)c2cc(F)ccc2N1 (stereo not given),IkBa stabilization activation,[1],inactive
C=CCn1c(SCC(=O)NCCOC)nc2scc(-c3ccco3)c2c1=O,IkBa stabilization activation,[1],inconclusive: 5.4% [signal inhibitor]
COc1ccc(-c2noc(-c3ccc(N4CCCCC4)c([N+](=O)[O-])c3)n2)cc1,IkBa stabilization activation,[1],inconclusive: -1.96% [signal inhibitor]
Cc1ccc(-c2nc(Nc3ccccc3)n[nH]2)cc1,Potency,[1],"inconclusive: 25.1 µM [signal inhibitor, partial curve]"
COC(=O)c1ccccc1NC(=O)Nc1cccc(OCc2cc(=O)n3cccc(C)c3n2)c1,IkBa stabilization activation,[1],inactive
c1ccc(SC(Sc2ccccc2)c2ccc3c(c2)OCO3)cc1,IkBa stabilization activation,[1],"inactive: 0.0261% [at 11.4 µM, scaled: untreated 0%, proteasome inhibitor 100%]"
CCc1ccc2oc(-c3cc(N)ccc3Cl)nc2c1,Potency,[1],"inconclusive: 25.1 µM [signal inhibitor, partial curve]"
COc1ccccc1-c1cn[nH]c(=S)n1,IkBa stabilization activation,[1],inconclusive: 11.5% [signal inhibitor]
Cc1ccc(C)c(CSc2c(C(C)C)cnc3c2c(=O)n(C)c(=O)n3C)c1,IkBa stabilization activation,[1],inactive
c1ccc(-c2nnc3sc(-c4csc5c4CCCC5)nn23)cc1,IkBa stabilization activation,[1],inactive
CC(=O)Nc1ccc(S(=O)(=O)N2CCSC2c2ccc(Cl)cc2)cc1 (stereo not given),Potency,[1],"inconclusive: 20 µM [signal inhibitor, partial curve]"
Cc1csc2nc(COc3ccc(NC(=O)COc4ccc(F)cc4)cc3)cc(=O)n12,IkBa stabilization activation,[1],inactive
CN1Cc2sc(N)c(C#N)c2CC1(C)C,IkBa stabilization activation,[1],inactive
Cc1ccc(NC(=O)Cn2cc(S(=O)(=O)N3CCN(c4ccccc4F)CC3)c3ccccc3c2=O)cc1F,IkBa stabilization activation,[1],inconclusive: 2.78% [signal inhibitor]
Cn1c(C(=O)N2CCC(C(=O)N3CCN(Cc4ccc5c(c4)OCO5)CC3)CC2)cc2sccc21,IkBa stabilization activation,[1],inconclusive: 5.34% [signal inhibitor]
CCOc1ccccc1CNC(=O)c1nn(C)c2c1CS(=O)(=O)c1ccccc1-2,Potency,[1],inconclusive: 31.6 µM [signal inhibitor]
CC(C)c1ccc(CNc2nc(-c3ccco3)nn2S(=O)(=O)c2ccccc2)cc1,IkBa stabilization activation,[1],inconclusive: 1.54% [signal inhibitor]
COc1ccc(CCNc2nnc(Sc3nnnn3-c3ccccc3)s2)cc1OC,IkBa stabilization activation,[1],inconclusive: 11.4% [signal inhibitor]
N#C/C(=C\c1ccc(O)c(O)c1)C(=O)Nc1ccccc1,IkBa stabilization activation,[1],inconclusive: 0.996% [signal inhibitor]
same,IkBa stabilization activation,"at 57.1 µM (top of the series), proteasome inhibitor 100%",inactive: 8.62%
Nn1cnn(Cc2ccccc2)c1=S,IkBa stabilization activation,[1],inactive
Cc1cc(OCC(=O)NCC2(N(C)C)CCCCC2)cc(C)c1Cl,IkBa stabilization activation,[1],inactive
Cc1cccc(Cc2c(C)nc3c(C(=O)NCc4ccco4)cnn3c2C)c1,IkBa stabilization activation,[1],inconclusive: 0.668% [signal inhibitor]
CCn1cc(C(=O)NCCCN(CC(C)C)CC(C)C)c(=O)c2cc(S(=O)(=O)N3CCc4ccccc4C3)ccc21,IkBa stabilization activation,[1],inactive
Cc1ccc(-c2nnc(SCC(=O)NCCC(C)C)nc2-c2ccc(C)cc2)cc1,IkBa stabilization activation,[1],inconclusive: 4.62% [signal inhibitor]
Cc1cc(NC(=O)C2CCCN(S(=O)(=O)c3ccc(Br)s3)C2)ccc1Br (stereo not given),IkBa stabilization activation,[1],inconclusive: 11.5% [signal inhibitor]
CCc1ccc(NC(=O)N(Cc2c[nH]c3ccccc23)C2CCCCCC2)cc1,IkBa stabilization activation,[1],inactive
CCN(CC)c1nc2ccccc2nc1C(C#N)C(=O)NCCCOC (stereo not given),IkBa stabilization activation,[1],inactive
C/C(=N\NC(=O)c1ccncc1)c1ccc2ccccc2c1O,IkBa stabilization activation,[1],"inactive: -1.14% [at 11.4 µM, scaled: untreated 0%, proteasome inhibitor 100%]"
Cc1nc2c(C(=O)NCc3ccco3)cnn2c(C)c1Cc1ccc(F)cc1Cl,IkBa stabilization activation,[1],inactive
O=C(Nc1ccc2c(c1)nc1n2CCOC1)c1ccccc1,Potency,[1],"inconclusive: 15.8 µM [signal inhibitor, partial curve]"
O=C(c1ccc(COc2ccccc2Br)o1)N1CCCCCC1,IkBa stabilization activation,[1],inconclusive: 1.6% [signal inhibitor]
O=C1NC(=O)C(c2ccccc2[N+](=O)[O-])=C1Nc1ccc(O)c(Cl)c1,IkBa stabilization activation,[1],inconclusive: 0.603% [signal inhibitor]
COc1ccc(-n2ncc(C(=O)Nc3ccc(C)cc3Cl)c2C2CCN(C(=O)OC(C)(C)C)CC2)cc1,IkBa stabilization activation,[1],inconclusive: -1.11% [signal inhibitor]
Cn1c(=O)n(C)c2cc(NS(=O)(=O)c3ccc4c(c3)CCCC4)ccc21,Potency,[1],active: 7.94 µM
COc1cccc(-n2nnc3c(=O)n(CC(=O)NC4CCCC4)cnc32)c1,IkBa stabilization activation,[1],inactive
O=S(=O)(NCCc1csc(-c2ccc(F)cc2)n1)c1ccc(F)cc1F,IkBa stabilization activation,[1],inconclusive: 1.11% [signal inhibitor]
COC(=O)c1ccc(CSc2nc3c(cnn3-c3ccccc3)c(=O)[nH]2)o1,IkBa stabilization activation,[1],inactive
Cc1oc(-c2ccccc2)nc1C(=O)OCC(=O)NC(=O)NCC(C)C,IkBa stabilization activation,[1],inconclusive: 2.03% [signal inhibitor]
Cc1ccc(-c2cn3cccnc3n2)cc1NC(=O)c1ccc(Br)o1,IkBa stabilization activation,[1],inactive
C=CCNC(=O)NC(=O)COC(=O)CCCSc1nc2ccccc2[nH]1,IkBa stabilization activation,[1],inconclusive: -1.54% [signal inhibitor]
Cc1ccc(-c2noc(CN(C(=O)CCCN3C(=O)c4ccccc4C3=O)C(C)C)n2)cc1,IkBa stabilization activation,[1],inconclusive: 14.2% [signal inhibitor]
COC(=O)c1ccc(NC(=O)CSc2ccc(-c3cccs3)nn2)cc1,IkBa stabilization activation,[1],inconclusive: -0.501% [signal inhibitor]
NS(=O)(=O)c1ccc(CCNc2ncnc3sccc23)cc1,IkBa stabilization activation,[1],inconclusive: 2.82% [signal inhibitor]
O=C(NCCc1nc2ccccc2n1CCOc1ccc(Cl)cc1)C1CCCCC1,IkBa stabilization activation,[1],inconclusive: -0.495% [signal inhibitor]
COc1ccccc1NC(=O)CN1CCN(CC(=O)Nc2ccc(OCc3ccccc3)cc2)CC1,IkBa stabilization activation,[1],inconclusive: 6.94% [signal inhibitor]
O=C(Nc1ccc(NC(=O)c2ccco2)nc1)c1cccnc1,Potency,[1],"inconclusive: 25.1 µM [signal inhibitor, partial curve]"
